# Legend:
# rat trkC = rat trkC (Rattus norvegicus, UniProt Q03351); assay: Direct ELISA binding to rat trkC-IgG; conditions: for recognition of rat trkC compared with human trkC: FIG. 3, Mabs 1 μg/ml
# [1] = system: cisplatinum induced neuropathy; assay: Cisplatinum induced neuropathy in adult rats, H-wave sensory conduction velocity; format: in vivo, rat; conditions: 1 mg/kg once a week IV for four weeks, continued cisplatinum
# [2] = In vivo half-life and bioavailability, serum levels after IV or subQ injection in rats; conditions: rat
# pyridoxine neuropathy [3] = assay: Pyridoxine neuropathy in rats, DRG marker mRNA expression by TAQMAN RT-PCR; format: in vivo, rat
# pyridoxine neuropathy [4] = assay: Pyridoxine neuropathy in rats, M-wave and H-wave electrophysiology; format: in vivo, rat; conditions: pyridoxine 400 mg/kg twice daily for 8 days; cotreatment
# pyridoxine neuropathy [5] = assay: Pyridoxine neuropathy in rats, horizontal ladder proprioceptive test; format: in vivo, rat; conditions: pyridoxine 400 mg/kg twice daily for 8 days; cotreatment
# [6] = pyridoxine 600 mg/kg daily, Mab at either 1 mg/kg or 5 mg/kg
# Chain of rat trkC (Q03351 32-429 limits assumed): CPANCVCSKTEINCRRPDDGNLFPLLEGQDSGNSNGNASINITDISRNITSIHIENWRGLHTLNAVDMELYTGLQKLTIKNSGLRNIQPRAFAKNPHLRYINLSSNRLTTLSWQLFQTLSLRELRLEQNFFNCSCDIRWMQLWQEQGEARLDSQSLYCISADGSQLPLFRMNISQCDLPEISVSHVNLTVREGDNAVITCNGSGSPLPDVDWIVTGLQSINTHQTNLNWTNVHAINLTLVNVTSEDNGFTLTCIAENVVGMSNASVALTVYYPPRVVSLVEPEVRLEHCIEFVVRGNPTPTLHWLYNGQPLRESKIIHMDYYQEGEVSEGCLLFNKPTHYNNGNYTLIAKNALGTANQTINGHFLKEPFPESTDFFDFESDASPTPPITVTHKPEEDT
Molecule,Binds Rat trkC (rat trkC),recognition of rat trkC compared with human trkC (rat trkC),sensory conduction velocity (H-wave) [1],"half-life ([2]; 1 mg/kg IV, 5 mg/kg subQ, serum levels by KIRA)",bioavailability after subcutaneous administration ([2]; 5 mg/kg subQ vs 1 mg/kg IV),"trkC expression (pyridoxine neuropathy [3]; pyridoxine 400 mg/kg daily, Mab 5 mg/kg)","NFL and NSE expression (pyridoxine neuropathy [3]; pyridoxine 400 mg/kg daily, Mab 5 mg/kg subQ weekly)","NFL and NSE expression (pyridoxine neuropathy [3]; pyridoxine 400 mg/kg daily, Mab dose 1 mg/kg)",NFL and NSE expression (pyridoxine neuropathy [3]; [6]),trkC and calretinin expression (pyridoxine neuropathy [3]; [6]),amplitude of the sensory response (H-wave) compared to the motor response (M-wave) (pyridoxine neuropathy [4]),"hindpaw placement on horizontal ladder (good placements, footfaults, near footfaults) (pyridoxine neuropathy [5])"
"Mab 6.4.1: human IgG2 agonist anti-trkC monoclonal antibody; hybridoma ATCC PTA-2150; heavy chain SEQ ID NO: 46, light chain SEQ ID NO: 53 (antibody, listed as Homo sapiens, V domains shown) VH: NQVQLQESGPGLVRPSETLSLTCTVSGGSISTYYWNWIRQPAGKGLEWIGRIYTSGSTNYNPSLKSRVTMSVDTSKNQFSLKLSSVTAADTAVYYCARDGGYSNPFDWGQGTLVTVSSC VL: NDIQMTQSPDSLAVSLGERATINCKSSQSVSYSSNNKNYLAWYQQKPGQPPKLLIYWASTRESGVPDRISGSGSGTDFTLTISSLQAEDVAVYYCQQHYNTPLTFGGGTKVEIKRC",YES,significantly recognized rat trkC,improvement of this lowered conduction velocity,,,,,,,,,
"Mab 2256: murine IgG1 agonist anti-trkC monoclonal antibody; hybridoma ATCC PTA-2152; heavy chain SEQ ID NO: 44, light chain SEQ ID NO: 51 (antibody, V domains shown, Murine) VH: NQVQLQQPGAELVKPGASVKLSCKASGYTFTSYWMHWVKQRPGQGLEWIGEIYPSNGRTNYNEKFKSKATLTVDKSSSTAYMQLSSLTSEDSAVYYCARKYYYGNSYRSWYFDVWGAGTTLTVSSC VL: NDIVLTQSPASLAVSLGQRATIS[left out - about 80 residues]FGGGTKLEMKRC",YES,recognized rat trkC to a significant extent,improvement of this lowered conduction velocity,220 h,69%,increases trkC expression over control level,completely blocked this decrease in expression,no appreciable effect,slight trend towards protection,significantly but not completely blocks the decrease in expression,significantly blocked the pyridoxine-induced decrease in the sensory amplitude,smaller decline in good placements and smaller increases in footfaults and near footfaults

# Reference: patent US7384632B2, “Agonist anti-trk-C monoclonal antibodies” (Genentech, Inc., priority 2000, dated 2008)
